# Experimental data reported in PubChem BioAssay AID686978 (National Center for Advancing Translational Sciences (NCATS), 2013).
# About 64,000 (15%) of roughly 420,000 compounds were called active. The inconclusive results got no clear call from the source; some entries with a clear call stand among them for comparison. Calls come from the whole dose curve; as a rule, active = well fitted inhibition curve with a large enough effect; inconclusive = small, poorly fitted or top-dose-only effect; inactive = flat fitted curve, though single readings scatter. No potency is given beside an inconclusive call; the fits are too rough.
# Assay: qHTS for Inhibitors of human tyrosyl-DNA phosphodiesterase 1 (TDP1): qHTS in cells in absence of CPT; note: nearly all actives have a fitted effect of over 55% in size
# Conditions: DT40 Tdp1-/- hTDP1 cells, no CPT, ATP luminescence, 48 h; activity change, negative = growth inhibition: at 46.2 µM (top of the series) unless noted
# How it was run: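 Camptothecin absent (DMSO only). Human TDP1-complemented DT40 knockout cells, 400 cells/well, 37 °C for minimum 48 hr; ATP measured via CellTiter-Glo, 30 min dark incubation, luminescence.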
# % is set by controls: 0 for no effect and ±100 for the full control effect; potency is the fitted concentration of half-maximal effect; tags give direction and shape of the fitted curve.
Structure (SMILES),Potency,"activity change, negative = growth inhibition"
COc1cccc(C(O)c2ncc(-c3cccc4ccccc34)[nH]2)c1 (configuration not stated),active: 9.2 µM,–
O=S(=O)(c1cc(Cl)ccc1Cl)N1CCN(Cc2ccco2)CC1,–,inactive: -8.69%
COc1cccc(NC(=O)C2CCN(c3nn4cc(-c5ccc(F)cc5)nc4s3)CC2)c1,"inconclusive [inhibitor, partial curve]",–
Cc1cccc(C)c1OCc1nc2c3c(-c4ccccc4)c(-c4ccccc4)oc3ncn2n1,–,inactive: -11.4%
CC(C)n1cc(CN2CCC(n3nccc3NC(=O)C3CCCC3)CC2)cn1,–,inactive: 6.79%
Cc1ccccc1C(=O)N1[C@@H](C(C)C)COc2cc(Br)ccc2S1(=O)=O,"inconclusive [inhibitor, single point]",–
CN1C(=O)c2ccc(N3CCCC3)cc2C1=O,"inconclusive [inhibitor, partial curve]",–
CCN1CCN(S(=O)(=O)c2ccc(Cl)c(C(=O)Nc3ccc(OC(F)F)cc3)c2)CC1,"inconclusive [inhibitor, partial curve]",–
COc1ccc(C2=NN(C(=O)c3ccco3)C(c3cccs3)C2)cc1OC (configuration not stated),"inconclusive [inhibitor, single point]",–
Cc1ccc(C)c(-c2cc(C(=O)NCc3cccs3)c3ccccc3n2)c1,"inconclusive [inhibitor, single point]",–
CCCCCCSc1nsc(NC(=O)CC(C)C)n1,"inconclusive [inhibitor, single point]",–
CCOc1ccccc1NC(=S)N1CCN(c2ccc(OC)cc2)CC1,–,inactive: -20%
O=C(O)CSc1cc(NS(=O)(=O)c2ccc(Br)cc2)c2ccccc2c1O,active: 5.17 µM,–
Cc1cccc2c1-c1sc(C(=O)N(C)c3cccc(C(F)(F)F)c3)cc1CO2,active: 23.1 µM,–
CC(OC(=O)C1CCN(S(=O)(=O)c2ccccc2C(F)(F)F)CC1)C(=O)N(C)Cc1ccccc1 (configuration not stated),"inconclusive [inhibitor, single point]",–
O=C(Nc1ccc(N2CCOCC2)cc1N1CCOCC1)c1ncoc1-c1cccc(F)c1,"inconclusive [inhibitor, single point]",–
Cc1cccc(C)c1NCC(=O)N1CCN(Cc2ccccc2)CC1,"inconclusive [inhibitor, single point]",–
F[B-](F)(F)COc1ccccc1,–,inactive: -9.84%
NC(=O)c1nnsc1Sc1c(C(N)=O)nnn1-c1cccc(N)c1,–,inactive: -1.55%
O=C(COC(=O)c1cnccn1)Nc1ccc(Cl)cn1,–,inactive: -14.7%
CCC1(c2ccc(F)cc2)NC(=O)N(CC(=O)Nc2cc(S(=O)(=O)N(C)C)ccc2Cl)C1=O (configuration not stated),"inconclusive [inhibitor, single point]",–
CCNC(=O)c1nn(-c2ccccc2C)nc1CO,–,inactive: -0.957%
CCOC(=O)c1cnc(-n2nc(C)cc2C)nc1N1CCOCC1,"inconclusive [inhibitor, single point]",–
Cc1cccc(OCC(=O)Nc2ccc3c(c2)OCO3)c1C,"inconclusive [inhibitor, single point]",–

Structure (SMILES),Potency,"activity change, negative = growth inhibition"
CC(=O)C1=C(c2ccc(C)c(C)c2)N(C(C)=O)n2c(nnc2-c2ccc(Cl)cc2)S1,active: 4.61 µM,–
O=C(NCc1cccc(Cl)c1)c1ccc(-c2ccc(F)c(F)c2)c2ccoc12,"inconclusive [inhibitor, partial curve]",–
Cc1csc2nc(COc3ccccc3NC(=O)c3ccc(C(C)(C)C)cc3)cc(=O)n12,"inconclusive [inhibitor, partial curve]",–
O=C(CN1CCN(C/C=C/c2ccccc2)CC1)Nc1ccc(F)cc1F,"inconclusive [inhibitor, single point]",–
CC1CCN(S(=O)(=O)N2CCC(C(=O)NC(C)c3ccccc3)CC2)CC1 (configuration not stated),"inconclusive [inhibitor, single point]",–
Cc1ccc(S(=O)(=O)N2CCOCC2)cc1NC(=O)COC(=O)c1ccc(Br)o1,–,inactive: 0.763%
Cc1ccc(CN2CCSc3ccc(C(=O)NC4CCCC4)cc32)cc1,"inconclusive [inhibitor, single point]",–
O=C(Nc1ccc(Cl)c(S(=O)(=O)N2CCOCC2)c1)c1ccc2c(c1)OCCO2,"inconclusive [inhibitor, single point]",–
COc1ccc(CN2C(=O)CCC2(C)c2nnnn2-c2c(C)cccc2C)cc1OC (configuration not stated),active: 18.4 µM,–
CC(=O)NCCNC(=O)C1Cc2c(-c3ccc4c(c3)OCO4)ccnc2O1 (configuration not stated),–,inactive: -9.96%
Cc1nnsc1-c1nc2ccccc2[nH]1,–,inactive: -6.44%
CC(C)Cn1c(N)c(C(=O)COC(=O)Cc2cccs2)c(=O)n(C)c1=O,active: 23.1 µM,–
Cc1ccc(CN2CCN(CC(=O)Nc3ccc(C)c(C)c3)S2(=O)=O)cc1,"inconclusive [inhibitor, single point]",–
CCOC(=O)C1(Cc2ccccc2C)CCCN(C(=O)CCc2c(C)noc2C)C1 (configuration not stated),"inconclusive [inhibitor, partial curve]",–
Cc1nn(C)c(C)c1NS(=O)(=O)c1ccc(Cl)s1,"inconclusive [inhibitor, partial curve]",–
Cc1ccc(N(O)C(=O)NCCCCNC(=O)N(O)c2ccc(C)cc2)cc1,–,inactive: -26.2%
COc1ccc(-n2c(C)nc3cc(C(=O)N4CCOCC4)ccc32)cc1,–,inactive: -21.1%
O=C1C=CC(O)C2(CO)OC12 (configuration not stated),active: 5.8 µM,–
COc1ccc(C)cc1S(=O)(=O)N1CCC(C(=O)NCCC2=CCCCC2)CC1,"inconclusive [inhibitor, single point]",–
O=C(Cn1c(=O)n(-c2ccccc2Cl)c(=O)c2sc3ccccc3c21)NC1CCCCC1,–,inconclusive: -13.9% [inhibitor]
Cc1ccc(C(=O)C=Cc2ccc3c(c2)OCO3)c(C)c1,"inconclusive [inhibitor, single point]",–
COc1nc(C#N)nc(N2CCCCC2)n1,active: 20 µM,–
CCOC(=O)c1ccccc1NC(=O)COC(=O)CCC(=O)c1ccc(C)cc1,"inconclusive [inhibitor, single point]",–
